# The list shows a part of the results.
# Test system: T1, C. trachomatis L2/434/Bu expressing GFP (CTL2-GFP)
# T1 construct: L2/434/Bu GFP intracellular growth in HeLa cells
# Parameters: species or system HeLa; C. trachomatis total inclusion area by high-content imaging, normalised to DMSO
# Conditions: total inclusion area; 28.5 h, 10 µM; inhibitor
# Outline: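 Imaging read-out: GFP inclusions and Hoechst nuclei captured by high-content imaging after fixation. Inclusion area/number = chlamydial growth; nuclei count = host cell viability. MIC calculated per earlier method.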
row,SMILES,% of control remaining
1,CSCC[C@H](NC(=O)OC(C)(C)C)C(=O)NCc1csc(-c2ccccc2)n1 [CBK092345],90.3426
2,CC(=O)N1CCc2sccc2C1c1ccccc1NCc1ccoc1 (centres unmarked) [CBK286432],25.4444
3,O=C(O)CCSC1=CCS(=O)(=O)c2ccc(Cl)cc21 [CBK013721],48.271
4,Cc1ccc(Nc2nc(N)nc(CSc3nccn3C)n2)cc1 [CBK266468],106.373
5,CCOC(=O)c1sc(Cl)nc1C(F)(F)F [CBK026746],75.5397
6,C[C@@H]1CN(C(=O)OCCn2cccc2)C[C@H](C)O1 [CBK200123],96.098
7,CN1CCC(N(C)C(=O)Nc2cccnc2)C1 (centres unmarked) [CBK156026],102.701
8,O=C(Cn1cnc2ccccc21)N1CCc2[nH]c3ccccc3c2C1 [CBK281860],96.7066
9,CC(C)(C)c1cc(CN)c(C(=O)O)o1 [CBK266510C],92.3732
10,Cc1cc(NC(=O)OCc2cccnc2C)c2ccccc2n1 [CBK200129],74.5671
11,NC(=O)CSc1nnc(-c2cccnc2)n1Cc1ccccc1 [CBK268672],81.7638
12,O=C(Cn1c(=O)oc2ccccc21)Nc1ccc(N2CCOCC2)c(Cl)c1 [CBK270079],68.3046
13,O=C(NC1CCN(c2ncccn2)CC1)c1ccc[nH]c1=S [CBK241695],102.925
14,CCn1c(=O)c(C=Cc2cccc(Br)c2)nc2cc(C(=O)O)ccc21 [CBK295364],104.675
15,CCCNC(=O)c1ccc(C)c(S(=O)(=O)Nc2ccc(C)cc2C)c1 [CBK269084],85.967
16,O=C(NCC1CCCO1)C1CCN(C(=O)c2cccc(F)c2)CC1 (centres unmarked) [CBK304633],86.5866
17,COC(=O)c1ccccc1NC(=O)CC1Sc2ccccc2NC1=O (centres unmarked) [CBK269400],102.162
18,O=C1CSC2(C(=O)N(Cc3ccccc3)c3ccccc32)N1c1ccccc1 (centres unmarked) [CBK092391],117.56
19,O=C1CCC(=O)N1CCOc1nccnc1OC1CCN(Cc2ccccc2F)CC1 [CBK084337],87.3685
20,O=C(NC1CCCCC1)c1cc(Br)cnc1NCCCn1ccnc1 [CBK076494],110.42
21,O=C(NCCNC1CCC(c2ccccc2)CC1)c1ccc(F)cc1 (centres unmarked) [CBK266857],69.3488
22,S=C(NC1=NCCS1)Nc1ccccc1 [CBK016591],20.3086
23,Clc1ccc(CN2CCC(Oc3cncc(OCCN4CCOCC4)n3)C2)cc1Cl (centres unmarked) [CBK084477],48.5896
24,CCCc1c(C(=O)N2CCN(C)CC2)cnn1-c1cc(Cl)cc(Cl)c1 [CBK107375],80.0169
25,CCc1cccc(CC)c1NC(=O)CN(c1cccc(Br)c1)S(C)(=O)=O [CBK265986],83.6515
26,COc1ccc(N2CCN(CC(=O)N3CCC(C(N)=O)CC3)CC2)cc1 [CBK268993],101.853
27,COc1cc(/C=C2/NC(=O)N(c3cccc(Cl)c3)C2=O)ccc1OCC(=O)Nc1ccc(F)cc1 [CBK265691],98.1106

row,SMILES,% of control remaining
1,COc1ccc(/C=C(/NC(=O)c2cccc([N+](=O)[O-])c2)C(=O)O)cc1OC [CBK263362],113.975
2,Cc1cc(NS(=O)(=O)c2ccc(Nc3nc(-c4ccc(Cl)cc4Cl)cs3)cc2)no1 [CBK267298],80.1051
3,Cc1nc(-c2cccs2)cc([C@H]2CN3CC[C@H]2C[C@@H]3CNC(=O)c2ccco2)n1 [CBK289127],86.0975
4,COc1cc(Nc2nc(-c3ccc4[nH]ccc4c3)cn3ccnc23)cc(OC)c1OC [CBK038069],128.431
5,O=C(Nc1cccc(-c2ccc3nncn3n2)c1)c1ccc(F)cc1 [CBK287682],75.3736
6,Cc1cc(C)n(CCCN(C)Cc2ccc(N3CCCC3=O)cc2)n1 [CBK281827],80.2379
7,CC(C)c1ccc(OCCc2cc(C3CCN(C(=O)CC4CCCC4)C3)n[nH]2)cc1 (centres unmarked) [CBK286129],72.408
8,CCCC(=O)NC[C@H]1CC[C@H](c2nnc(-c3ccsc3)o2)CC1 [CBK283362],113.25
9,Cc1cc(C)nc(N/N=C/c2cn(-c3ccccc3)nc2-c2ccc([N+](=O)[O-])cc2)n1 [CBK262864],85.4015
10,CCN(C(=O)c1n[nH]c2c1CCC2)C1CCN(C)CC1 [CBK281870],105.536
11,Cc1nc2c(c(N(C)C)n1)CCN(C(=O)C(C)n1cc(Cl)cn1)C2 (centres unmarked) [CBK307293],58.8659
12,FC(F)(F)c1ccc(OCCN2CCNCC2)nc1 [CBK113462],105.575
13,Clc1nc2ccccc2nc1OCCOc1ccccc1 [CBK113367],105.568
14,COCCNc1nc(-c2ccoc2)cn2ccnc12 [CBK066416],117.72
15,CC(=O)Nc1ccc(NC(=O)c2cc(-c3ccc(Cl)cc3Cl)nc3ccccc23)cc1 [CBK265080],110.388
16,O=C(CSc1nc2ccccc2[nH]1)n1c2c(c3ccccc31)CCCC2 [CBK263945],67.8375
17,CN1C(=O)/C(=C2\SC(=S)N(C(Cc3ccccc3)C(=O)O)C2=O)c2ccccc21 (centres unmarked) [CBK263507],104.461
18,Cn1cc(C(Nc2cccc(C#N)n2)[C@H]2C[C@H](O)C2)cn1 (some centres unmarked) [CBK307011],101.958
19,O=C(O)c1cccc(NS(=O)(=O)c2ccccc2)c1 [CBK155710],108.427
20,CCCC/C=C/c1nccnc1NCc1cccs1 [CBK038090],116.272
21,CCOC(=O)c1c(C)nc(-c2ccccc2)nc1NC(=O)C(C)C [CBK028118],107.994
22,COc1cccc(N2CCN(CCCOc3ccc(F)cc3)CC2)n1 [CBK010355F],64.6191
23,CN(C)Cc1ccccc1C(O)c1ccccc1 (centres unmarked) [CBK261277],107.925
24,O=C(O)Cn1c(=O)[nH]c2c(-c3ccccc3)c[nH]c2c1=O [CBK287218],96.4798
25,O=C(Nc1cccnc1)c1ccc(F)cc1Cl [CBK288246],75.2738
26,C=C(C)CN1CCN(CC(CC(=O)NCc2ccccc2)C(=O)O)CC1 (centres unmarked) [CBK286823],108.346
27,CCN(CC)C1CCN(C(=O)Nc2cc(NC(C)=O)ccc2F)C1 (centres unmarked) [CBK305207],57.6791

row,SMILES,% of control remaining
1,Cc1ccccc1NC(=O)CCC(=O)N/N=C/c1ccncc1 [CBK262016],102.058
2,CC(C)c1noc(NCCc2cn3c(n2)CCCC3)n1 [CBK306444],54.277
3,O=c1[nH]c(=O)c2cc(S(=O)(=O)N3CCCCC3CN3CCCCC3)ccc2[nH]1 (centres unmarked) [CBK286393],114.028
4,CCOC(=O)c1cn[nH]c1N [CBK175217],44.0228
5,CCOc1ccc(CN2CCN(C(=O)c3ccc(-c4ccccc4)cc3)CC2)cc1 [CBK263399],88.0437
6,CC(CC(=O)N1CCC(Oc2ccccc2F)CC1)n1cccn1 (centres unmarked) [CBK282118],91.9986
7,FC(F)(F)c1nnc(-c2cc3sccc3s2)o1 [CBK006303],81.0758
8,CCn1ncc(S(=O)(=O)N2CCCC(c3cccc(-c4cccc(OC)c4)n3)C2)c1C (centres unmarked) [CBK286155],100.713
9,Brc1cccc(/C=N/N2CCN(Cc3cccc4ccccc34)CC2)c1 [CBK263011],84.3626
10,CCC(CC)C(=O)N1CCCC1c1nn(C)cc1-c1cc(C)no1 (centres unmarked) [CBK283452],117.037
11,CC(C)(C)c1ccc(S(=O)(=O)N2CCCC[C@H]2COC(=O)CCC(=O)O)cc1 [CBK200063],97.0314
12,CN1CCN(c2nc3ccccn3c(=O)c2/C=C2\SC(=S)N(CCc3ccccc3)C2=O)CC1 [CBK263131],85.038
13,O=S(=O)(Nc1ccc2[nH]ccc2c1)c1cc(C(F)(F)F)cc(C(F)(F)F)c1 [CBK156330],87.3785
14,COC(=O)C1CCN(Cc2ccc(-c3nnn(CC(=O)NCc4ccc(C)cc4)n3)cc2)C1 (centres unmarked) [CBK155406T],99.0825
15,COc1ccc(CN2CCCN(c3cc(OC4CCCCC4)ncn3)CC2)cc1 [CBK083278T],98.6055
16,Cc1ccc(S(=O)(=O)Nc2ccsc2C(=O)N2CCOCC2)cc1[N+](=O)[O-] [CBK004612],86.7404
17,O=C(Nc1ccc(OC(F)(F)F)cc1)N1CCN(Cc2ccc3c(c2)OCO3)CC1 [CBK074754],74.5748
18,CCC(C)c1ccc(NC(=S)NCc2ccccn2)cc1 (centres unmarked) [CBK266966],112.272
19,CCn1cc(CN(CCOC)C(=O)c2cc3c(Cl)cccc3[nH]2)cn1 [CBK306903],43.8783
20,COCCN(Cc1cnn(C)c1)C(=O)c1ccc2oc(C)cc2c1 [CBK307059],23.0974
21,Cc1ccc(C2=NN(C(=N)SC3CC(=O)N(c4ccc(C(=O)O)cc4)C3=O)C(c3ccc(Br)cc3)C2)cc1 (centres unmarked) [CBK263497],106.864
22,CC(=O)N1CCN(C[C@@H]2C=C(C)[C@H](Cc3nnc(C)o3)C[C@H]2C(C)C)CC1 [CBK289219],77.6798
23,Cn1nnnc1SCc1nc(N)nc(Nc2ccccc2)n1 [CBK268092],94.0029
24,O=C(c1ccccc1)c1cn[nH]c1-c1ccccc1O [CBK287970],109.811
25,O=[N+]([O-])c1ccc(CCNCC(O)COc2cccc3c2CCCC3)cc1 (centres unmarked) [CBK003083],92.1799
26,Cc1nn(Cc2nnc(SCC(=O)C(C)(C)C)o2)c(C)c1Br [CBK005646],66.3162
